Data reported in the supplement of paper PMC8728848.
This is one part of the list.

Key:
Assay in all cases: glycan array binding signal (z-score within array); higher = stronger binding
Conditions in all cases: glycan notation: IUPAC condensed, linker removed
Gal(b1-4)Glc6S = biological target: Gal(b1-4)Glc6S
Summary of the method: (§1)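 The binding signal is a Z-score computed within each array. Data were drawn from 3228 arrays in the Consortium for Functional Glycomics database, restricted to those with a known protein sequence. Scores were averaged over arrays of the same protein sequence at different concentrations or buffers, and over linkers, and negative values can be taken as non-binding.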

Gal(b1-4)GlcNAc = biological target: Gal(b1-4)GlcNAc
Summary of the method: as §1

[1] = biological target: Gal(b1-4)GlcNAc(a1-6)Gal(b1-4)GlcNAc
Summary of the method: as §1

Gal(b1-4)GlcNAc(b1-2)Man = biological target: Gal(b1-4)GlcNAc(b1-2)Man
Summary of the method: as §1

[2] = biological target: Gal(b1-4)GlcNAc(b1-2)Man(a1-3)Man(b1-4)GlcNAc(b1-4)GlcNAc
Summary of the method: as §1

[3] = biological target: Gal(b1-4)GlcNAc(b1-2)Man(a1-3)[Gal(b1-4)GlcNAc(b1-2)Man(a1-6)]Man(b1-4)GlcNAc(b1-4)GlcNAc
Summary of the method: as §1

[4] = biological target: Gal(b1-4)GlcNAc(b1-2)Man(a1-3)[Gal(b1-4)GlcNAc(b1-2)Man(a1-6)]Man(b1-4)GlcNAc(b1-4)[Fuc(a1-6)]GlcNAc
Summary of the method: as §1

[5] = biological target: Gal(b1-4)GlcNAc(b1-2)Man(a1-3)[Gal(b1-4)GlcNAc(b1-2)Man(a1-6)][Gal(b1-4)GlcNAc(b1-4)]Man(b1-4)GlcNAc(b1-4)[Fuc(a1-6)]GlcNAc
Summary of the method: as §1

[6] = biological target: Gal(b1-4)GlcNAc(b1-2)Man(a1-3)[Gal(b1-4)GlcNAc(b1-2)Man(a1-6)][GlcNAc(b1-4)]Man(b1-4)GlcNAc(b1-4)[Fuc(a1-6)]GlcNAc
Summary of the method: as §1

[7] = biological target: Gal(b1-4)GlcNAc(b1-2)Man(a1-3)[GlcNAc(b1-2)Man(a1-6)]Man(b1-4)GlcNAc(b1-4)GlcNAc
Summary of the method: as §1

[8] = biological target: Gal(b1-4)GlcNAc(b1-2)Man(a1-3)[GlcNAc(b1-4)][Gal(b1-4)GlcNAc(b1-2)Man(a1-6)]Man(b1-4)GlcNAc(b1-4)GlcNAc
Summary of the method: as §1

[9] = biological target: Gal(b1-4)GlcNAc(b1-2)Man(a1-3)[Man(a1-6)]Man(b1-4)GlcNAc(b1-4)GlcNAc
Summary of the method: as §1

[10] = biological target: Gal(b1-4)GlcNAc(b1-2)Man(a1-6)Man(b1-4)GlcNAc(b1-4)GlcNAc
Summary of the method: as §1

[11] = biological target: Gal(b1-4)GlcNAc(b1-2)Man(a1-6)[GlcNAc(b1-2)Man(a1-3)]Man(b1-4)GlcNAc(b1-4)GlcNAc
Summary of the method: as §1

[12] = biological target: Gal(b1-4)GlcNAc(b1-2)Man(a1-6)[Man(a1-3)]Man(b1-4)GlcNAc(b1-4)GlcNAc
Summary of the method: as §1

[13] = biological target: Gal(b1-4)GlcNAc(b1-2)[Gal(b1-4)GlcNAc(b1-4)]Man(a1-3)[Gal(b1-4)GlcNAc(b1-2)Man(a1-6)]Man(b1-4)GlcNAc(b1-4)GlcNAc
Summary of the method: as §1

[14] = biological target: Gal(b1-4)GlcNAc(b1-2)[Gal(b1-4)GlcNAc(b1-4)]Man(a1-3)[Gal(b1-4)GlcNAc(b1-2)[Gal(b1-4)GlcNAc(b1-6)]Man(a1-6)]Man(b1-4)GlcNAc(b1-4)GlcNAc
Summary of the method: as §1

[15] = biological target: Gal(b1-4)GlcNAc(b1-2)[Gal(b1-4)GlcNAc(b1-4)]Man(a1-3)[GlcNAc(b1-4)][Gal(b1-4)GlcNAc(b1-2)Man(a1-6)]Man(b1-4)GlcNAc(b1-4)GlcNAc
Summary of the method: as §1

[16] = biological target: Gal(b1-4)GlcNAc(b1-2)[Gal(b1-4)GlcNAc(b1-4)]Man(a1-3)[GlcNAc(b1-4)][Gal(b1-4)GlcNAc(b1-2)[Gal(b1-4)GlcNAc(b1-6)]Man(a1-6)]Man(b1-4)GlcNAc(b1-4)GlcNAc
Summary of the method: as §1

[17] = biological target: Gal(b1-4)GlcNAc(b1-2)[Gal(b1-4)GlcNAc(b1-6)]Man(a1-6)[Gal(b1-4)GlcNAc(b1-2)Man(a1-3)]Man(b1-4)GlcNAc(b1-4)GlcNAc
Summary of the method: as §1

[18] = biological target: Gal(b1-4)GlcNAc(b1-2)[Gal(b1-4)GlcNAc(b1-6)]Man(a1-6)[Gal(b1-4)GlcNAc(b1-2)Man(a1-3)]Man(b1-4)GlcNAc(b1-4)[Fuc(a1-6)]GlcNAc
Summary of the method: as §1

[19] = biological target: Gal(b1-4)GlcNAc(b1-2)[Gal(b1-4)GlcNAc(b1-6)]Man(a1-6)[GlcNAc(b1-4)][Gal(b1-4)GlcNAc(b1-2)Man(a1-3)]Man(b1-4)GlcNAc(b1-4)GlcNAc
Summary of the method: as §1

[20] = biological target: Gal(b1-4)GlcNAc(b1-2)[Gal(b1-4)GlcNAc(b1-6)]Man(a1-6)[GlcNAc(b1-4)][Gal(b1-4)GlcNAc(b1-2)[Gal(b1-4)GlcNAc(b1-4)]Man(a1-3)]Man(b1-4)GlcNAc(b1-4)[Fuc(a1-6)]GlcNAc
Summary of the method: as §1

[21] = biological target: Gal(b1-4)GlcNAc(b1-3)Gal(b1-3)GalNAc
Summary of the method: as §1

[22] = biological target: Gal(b1-4)GlcNAc(b1-3)Gal(b1-3)GlcNAc
Summary of the method: as §1

[23] = biological target: Gal(b1-4)GlcNAc(b1-3)Gal(b1-4)Glc
Summary of the method: as §1

[24] = biological target: Gal(b1-4)GlcNAc(b1-3)Gal(b1-4)GlcNAc
Summary of the method: as §1

[25] = biological target: Gal(b1-4)GlcNAc(b1-3)Gal(b1-4)GlcNAc(b1-2)Man(a1-3)[Gal(b1-4)GlcNAc(b1-3)Gal(b1-4)GlcNAc(b1-2)Man(a1-6)]Man(b1-4)GlcNAc(b1-4)GlcNAc
Summary of the method: as §1

[26] = biological target: Gal(b1-4)GlcNAc(b1-3)Gal(b1-4)GlcNAc(b1-2)Man(a1-3)[Gal(b1-4)GlcNAc(b1-3)Gal(b1-4)GlcNAc(b1-2)Man(a1-6)]Man(b1-4)GlcNAc(b1-4)[Fuc(a1-6)]GlcNAc
Summary of the method: as §1

[27] = biological target: Gal(b1-4)GlcNAc(b1-3)Gal(b1-4)GlcNAc(b1-2)[Gal(b1-4)GlcNAc(b1-3)Gal(b1-4)GlcNAc(b1-6)]Man(a1-6)[Gal(b1-4)GlcNAc(b1-3)Gal(b1-4)GlcNAc(b1-2)Man(a1-3)]Man(b1-4)GlcNAc(b1-4)GlcNAc
Summary of the method: as §1

B1: Blon2468mut (Bifidobacterium longum) (protein)
chain: MTFIKQMMPRYVASMTAGIVAAAMAATCAFAPVANADAVSPTQETIQSTGRHFMVYYRAWRDVTMKGVNTDLPDDNWISMYDIPYGVDVVNIFSYVPSGQEEQAQPFYDKLKSDYAPYLHSRGIKLVRGIDYTGVAVNGFRTFMKEQNKTESEATEADYDAYAKQVIDKYMISVGLDGLDIDMQAHPNDADVKISDNVIRALSKHIGPKSAKPDTTMFLYDTNGSYLNPFKNVAECFDYVAYQQYGSSSDRTARAAADYQPYIGNEFVPGLTFPEEGDMNNRWYDATEPYEESHFYQVASYVREHNLGGMFVYALDRDGRNYDEDLRRIVPSNLLWTKTAIAESEGMALDTAKTAANHYLDRMSLRQVIDDNAASADKARDMVGKAANLYETNKAVLGGDYGEGFSNTYDPTLEAGLLGIDISVLQQQIDKSSEIIGADTAESDAKTALRMARDAAIDGLTGKIYTADQVSAWSQALKAALDATVPVPTPDSTDQNGNRDKVTNHKVQGQPKQLSATGISTDIIVAVGVTLAIAGVALSLSRKLS
Which results are given for B1?
glycan array binding signal (z-score) (Gal(b1-4)Glc6S): -0.063; glycan array binding signal (z-score) (Gal(b1-4)GlcNAc): -0.072; glycan array binding signal (z-score) [1]: -0.082; glycan array binding signal (z-score) (Gal(b1-4)GlcNAc(b1-2)Man): -0.087; glycan array binding signal (z-score) [2]: -0.059; glycan array binding signal (z-score) [3]: -0.039; glycan array binding signal (z-score) [4]: -0.086; glycan array binding signal (z-score) [5]: -0.094; glycan array binding signal (z-score) [6]: -0.065; glycan array binding signal (z-score) [7]: -0.066; glycan array binding signal (z-score) [8]: -0.088; glycan array binding signal (z-score) [9]: -0.082; glycan array binding signal (z-score) [10]: -0.077; glycan array binding signal (z-score) [11]: -0.055; glycan array binding signal (z-score) [12]: -0.07; glycan array binding signal (z-score) [13]: -0.097; glycan array binding signal (z-score) [14]: -0.077; glycan array binding signal (z-score) [15]: -0.087; glycan array binding signal (z-score) [16]: -0.096; glycan array binding signal (z-score) [17]: -0.083; glycan array binding signal (z-score) [18]: -0.061; glycan array binding signal (z-score) [19]: -0.066; glycan array binding signal (z-score) [20]: -0.088; glycan array binding signal (z-score) [21]: -0.058; glycan array binding signal (z-score) [22]: -0.1; glycan array binding signal (z-score) [23]: -0.061; glycan array binding signal (z-score) [24]: -0.048; glycan array binding signal (z-score) [25]: -0.04; glycan array binding signal (z-score) [26]: -0.036; glycan array binding signal (z-score) [27]: -0.069
